# Assay results from the supplement of paper PMC3334620.
# Whole data set: some 33,000 sequences, median “E-score (-0.5 to 0.5)” near -0.041, cut for the highest 2% near 0.37. The list shows a part of the results.
# Target: T1, Ecm22 (UniProt Q05958)
# T1 sequence: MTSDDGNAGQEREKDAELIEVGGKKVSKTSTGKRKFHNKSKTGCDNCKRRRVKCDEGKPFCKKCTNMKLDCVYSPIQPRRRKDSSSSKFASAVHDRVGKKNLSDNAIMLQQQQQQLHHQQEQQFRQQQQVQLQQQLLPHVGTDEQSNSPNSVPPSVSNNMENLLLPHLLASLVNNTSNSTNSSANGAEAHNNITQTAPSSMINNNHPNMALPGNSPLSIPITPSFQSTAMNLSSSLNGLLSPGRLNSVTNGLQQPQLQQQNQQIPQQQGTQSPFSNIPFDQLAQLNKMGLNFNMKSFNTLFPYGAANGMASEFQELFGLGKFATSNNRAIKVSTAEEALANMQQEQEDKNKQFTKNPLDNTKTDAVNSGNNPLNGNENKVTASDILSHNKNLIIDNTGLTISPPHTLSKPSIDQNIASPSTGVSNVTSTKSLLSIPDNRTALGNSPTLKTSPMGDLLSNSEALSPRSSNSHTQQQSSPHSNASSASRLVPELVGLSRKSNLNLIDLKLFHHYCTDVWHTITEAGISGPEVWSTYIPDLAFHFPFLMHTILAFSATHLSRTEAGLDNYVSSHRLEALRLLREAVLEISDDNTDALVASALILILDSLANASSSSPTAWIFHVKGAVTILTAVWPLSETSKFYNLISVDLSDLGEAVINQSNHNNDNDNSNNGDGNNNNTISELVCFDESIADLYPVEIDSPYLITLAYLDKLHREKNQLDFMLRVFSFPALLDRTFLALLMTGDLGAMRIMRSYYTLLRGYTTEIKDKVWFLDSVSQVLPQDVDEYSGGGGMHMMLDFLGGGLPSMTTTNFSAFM
# Experiment: PBM E-score (8-mer binding enrichment) (E-score (-0.5 to 0.5)); higher = stronger / more preferred TF binding; most listed sequences are background and not binding sites
# Conditions: protein concentration: 200 nM; construct: GST-full length
# Procedure, shortened: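 Yeast transcription factors, full-length or as DNA-binding domains, were expressed with a GST tag using PURExpress in vitro transcription/translation. At about 100-200 nM they were applied to universal all-10-mer Agilent arrays, double-stranded by primer extension on fresh or once-stripped slides. Fluorescent anti-GST detected bound protein, and masliner normalised the scans. E-scores for ungapped eight-base words, pooled with reverse complements, came from the Universal PBM Analysis Suite.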
row,Sequence,PBM E-score
1,AACCGGTT,-0.0174
2,AGAATTAA,-0.113
3,CTAACGTA,0.226
4,GGTATCTA,0.0426
5,GTAATTAA,0.0811
6,AGAGTGAC,-0.237
7,ACGCTCTC,0.112
8,TCATATGA,-0.00144
9,GATTATGC,0.172
10,ACGGCAAC,0.136
11,GATATAAA,-0.022
12,CCCGAGCG,0.173
13,AAGAACCT,-0.208
14,CGTTGAGA,-0.0277
15,AGGCTTTC,0.0396
16,ACAACTTG,-0.229
17,CTATGTCA,-0.157
18,ACTATTGG,-0.185
19,CCTAATGA,-0.0616
20,ACACCACA,0.0653
21,ACCCTTGC,-0.182
22,TAAATTGA,-0.171

row,Sequence,PBM E-score
1,ATCCCGAA,-0.0384
2,AATGTTCT,-0.0835
3,AGAGCATG,-0.13
4,CGGTACTA,0.0459
5,TGCATACA,-0.0114
6,CTACTAAG,-0.0962
7,GTAGTCTA,0.0808
8,AAATAGGT,-0.0638
9,AGCGCGTA,0.248
10,GCGGACGA,0.0988
11,ACCTGAAG,-0.205
12,AGTAAACT,0.14
13,CGGCAGAG,-0.128
14,AAGTCATG,-0.0266
15,AAATGAGA,-0.0362
16,CACTGAGA,0.00578
17,ACACATTC,0.0782
18,AGAGGGAA,-0.266
19,CCGCAACC,-0.176
20,AATCGTTG,0.165
21,CGTTGAAA,0.0935
22,GCTCTCTA,-0.138

row,Sequence,PBM E-score
1,GCGTAAAA,0.217
2,ATGCGATG,0.148
3,ACGAGATG,0.365
4,TCACCAAA,0.0237
5,CTTTTAGC,-0.0889
6,AGCCGACC,0.0441
7,CATTAGCC,-0.176
8,CCACTGAA,-0.155
9,CTCTAAAC,0.0408
10,GCGAGCAA,0.198
11,GGATGATA,-0.0166
12,AACTCTAA,-0.0908
13,CTGGCCAG,-0.16
14,AGCACAAG,-0.222
15,CGCGCCCG,0.00528
16,ACGCTCAA,0.0449
17,CGCAAATC,0.145
18,CGCCGCAC,0.0475
19,CGACTGTC,0.0412
20,AAGCCTGT,-0.118
21,CTGCCACA,-0.191
22,GTTACCTA,-0.15

row,Sequence,PBM E-score
1,CAGGCTAA,-0.123
2,CGAAAACA,0.154
3,AGATCCGA,0.233
4,ATTTCCGC,0.0426
5,CGAGAGCA,0.162
6,AGACCGGA,0.0922
7,ATCCCCTA,-0.329
8,AATTTCCC,-0.00666
9,CTTGAAAA,-0.0528
10,AACCGGTC,0.0102
11,CGCCCCCA,-0.157
12,ATAGCATA,0.142
13,GCTACTAA,-0.161
14,AACGCGGA,0.117
15,GGAGCCAA,-0.272
16,GCCGGGGA,-0.256
17,ATTAGGGG,-0.108
18,AGGGGTTG,-0.158
19,ATGGTACA,-0.122
20,GAAGAAGC,-0.234
